First the molecules themselves.
B1: TPR 5TU (parent)
chain: GGAUCUUCUCGAUCUAACAAAAAAGACAAAUCUGCCACAAAGCUUGAGAGCAUCUUCGGAUGCAGAGGCGGCAGCCUUCGGUGGCGCGAUAGCGCCAACGUUCUCAACUAUGACACGCAAAACGCGUGCUCCGUUGAAUGGAGUUUAUCAUG

Variants at the background level are over-represented here.

The variants in this series derive from B1. Description: polymerase ribozyme fitness, log enrichment relative to wild type (log ratio); higher = more active; in vitro selection for triplet polymerase activity. In a few lines: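 Mutant libraries of each subunit of a heterodimeric triplet polymerase ribozyme were built by PCR and transcribed. Each library went through one round of in vitro selection in triplicate: annealing with biotinylated primer, partner subunit and triplets, frozen incubation at −7 °C, gel excision of extended constructs, streptavidin-bead capture and RT-PCR. Input and output libraries were Illumina-sequenced; only genotypes with ≥10 input reads and ≥1 read per output were kept. Fitness is log2(genotype enrichment/wild-type enrichment), using inverse-variance-weighted replicate averages.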
As for GGAUCUUCUCGAUCUAACAAAAAAGGCAAAUCUGCCACAAAGCUUGAGAGCAUCUUCGGAUGCAGAGGCGGCAGCCUUCGGUGACGCGAUAGCGCCAAAGUACUCAACUAUGACAGGCAAAACGCGUGCUCCGUUGAAUGGAGUUUAUCAUG [A26G G84A C99A U102A C116G], the “polymerase ribozyme fitness (log ratio)” value was no more than -4.2.

With GGAUCUUCUCGAUCUAACAAAAAAGGCAAAUCUGCAACAAAGCUUGAGAGCAUCUUCGGAUGCAGAGGCGGCAGCCUUCGGUGGCGCGAUAGCGCCAACGUUCUCAACUAUGACACGCAAAACGCGUGCUCCGUUGAAUGGAGUUUAUCAUG [A26G C36A], the “polymerase ribozyme fitness (log ratio)” value is no more than -4.2.

On to GGAUCUUCUCGAUCUAACAAAAAAGGCAAAUAUGCCACCAAGCUUGAGAGCAUAUUCGGAUGCAGAGGCGGCAGCCUUCGGUGGCGCGAUAGCGCCAACGUUCUCAACUAUGACACGCAAAACGCGUGCUCCGUUGAAUGGAGUUUAUCGUG [A26G C32A A39C C54A A150G], for which the “polymerase ribozyme fitness (log ratio)” value was no more than -4.2.

Turning to GGAUCUUCUCGAUCUAACAAAAAAGGCAAAUGUGUCACAAAGCUUGAGAGCAUCUUUGGAUGAAGAGGCGGCAGCCUUCGGUGGCGCGAUAGCGCCAACGUUCUCAACUAUGACACGCACAACGCGUGCUCCGUGGAAUGGAGUUAAUCAUG [A26G C32G C35U C57U C63A A120C U135G U146A], the “polymerase ribozyme fitness (log ratio)” value is no more than -4.2.

As for GGAUCUUCUCGAUCUAACAAAAAAGGCAAAUCUGCCACAAAGCUUGAGAGCAUCUUCGGGUGCAGAGGUGGCAGCCUUCGGUGGCGCGAUAGGGCCAACGUUCUCAACUAUGACACGCAAAACGCGUGCUCCGUUGAAUGGAGUUUAUCAUG [A26G A60G C69U C93G], the “polymerase ribozyme fitness (log ratio)” value is no more than -4.2.

For GGAUCUUCUCGAUCUAACAAAAAAGGCAAAUCUGCCACAAAGCUUGAGAGCAUCUUCGGAUGCAGAGGUGGCAGCCUUUGGUGGCGUGAUUGCGCCAACGUUCUCAACUAUGACACGCAAAACGCGUGCUCCGUUGAAUGGAGUUUAUCAUG [A26G C69U C79U C87U A91U], the “polymerase ribozyme fitness (log ratio)” value is no more than -4.2.

In the case of GGAUCUUCUCGAUCUAACAAAAAAGGCAAAUCUGCCACAACGCUUGAGAGCAUCUUCGGAUGCAGAGGCGGCAGCCUUCGGUGGAGCGAUAGCGCCAACGUUAUCAACUAUGACACGCAAAACGCGUGCUCCGUUGAAUGGAGUUUAUCAUG [A26G A41C C85A C103A], the “polymerase ribozyme fitness (log ratio)” value was no more than -4.2.

GGAUCUUCUCGAUCUAACAAAAAAGGCAAAUCUGCCACAAAGCUUGAGAGCAUCUUCGGAUGCAGAGGCGGCAGCCUUCGGUGGAGCGAUAGCGCCAACGUUCUCAACUAUGACACGCAAAACGCGUGCUCCGUGGAAUGGAGUUUGUCAUG [A26G C85A U135G A147G]: the “polymerase ribozyme fitness (log ratio)” value is no more than -4.2.

GGAUCUUCUCGAUCUAACAAAAAAGGCAAAUCUGCCACAAAACUUGAGAGCAUCUUCGGAUGCAGAGGCGGCAGCCUUCGGUGGCGCGAUAGCGCCAAAGUUCUCAACUAUGAAACGCAAAACGCGUGCUCCGUUCAAUGGAUUUUGUCAUG [A26G G42A C99A C114A G136C G143U A147G]: the “polymerase ribozyme fitness (log ratio)” value is no more than -4.2.

Take GGAUCUUCUCGAUCUAACAAAAAAGGCAAAUCUGCCACAAAGCUUGAGAGCAUCUUCGGAUGCAGAGGCGGCAGCCUUCGGUGGCGCCAUAGCGCCAACGCUCUCAACUAUGACACGCAAAACGCGUGCUCCGUUGAAUGAAGUUUAUCAUG [A26G G88C U101C G141A]: the “polymerase ribozyme fitness (log ratio)” value was no more than -4.2.

For GGAUCUUCUCGAUCUAACAAAAAAGGCAAAUCUGUCACAAAGCUUGAGAGCAUCUUCGGAUGCAGAGGCGGCAGCCUUCGGUGGCACGAUAGCGCCAACGUUCUCAACUAUGACACGAAAAACGCGUGCGCCGUUGAAUGGAGUUUAUCAUG [A26G C35U G86A C118A U130G], the “polymerase ribozyme fitness (log ratio)” value was no more than -4.2.

Take GGAUCUUCUCGAUCUAACAAAAAAGGCAAAUCUGCCACAAAGCUUGAGAGCAUCUUCGGAUGCAGAGGCGGCAGCCUUCGGUAGCGCGAUAGCGCCAACGUUCGCAACGAUGACACGCAAAACGCGUGCUCCGUUGAAUGGAGUUUAUCAUG [A26G G83A U104G U109G]: the “polymerase ribozyme fitness (log ratio)” value is no more than -4.2.

On to GGAUCUUCUCGAUCUAACAAAAAAGGCAAAUCUGCUACAAAGCUUGAGAGCAUCUUCGGAUGCAGAGGCGGCAGCCUUCGGUGGCGGGAUAGCGACAACGUUCUCAACUAUGACACGCAAAACGCAUGCUCCGUUGAAUGGAGUUUAUCAUG [A26G C36U C87G C95A G126A], for which the “polymerase ribozyme fitness (log ratio)” value is no more than -4.2.

For the variant GGAUCUUCUCGAUCUAACAAAAAAGGCAAAUCUGCCACAAAGCUUGAGGGCAUCUUUGAAUGCAGAGGCGGAAGCCUUCGGUGGCGCGAUAGCGCCAACGUUCUCAACUAUGACACGCAAAACGCGUGCUCCGUUGAAUGGAGUUUAUCAUG [A26G A49G C57U G59A C72A], the “polymerase ribozyme fitness (log ratio)” value was no more than -4.2.

As to GGAUCUUCUCGAUCUAACAAAAAAGGGAAAUCUGCGACAAAGCUUGAGAGCAUCUUCGGAUGCAGAGGCGACAGUCUUCGGUGGCGCGAUAGCGCAAACGUUCUCAACUAUGACACGCAAAACGCGUGGUCCGUUGAAUGGAGUUUAUCAUG [A26G C27G C36G G71A C75U C96A C129G], the “polymerase ribozyme fitness (log ratio)” value is no more than -4.2.

On to GGAUCUUCUCGAUCUAACAAAAAAGGCAAAUCUGCCACAAAGAUUGAGAGCAUCUUCGGAUGCAGAGGUGGCAGCCUUCGGUGGCGCGAUAGCGCCAACGUUCUCUACUAUGACACGCAAAACGGCUGCUCCGUUGAACGGAGUUUAUCAUG [A26G C43A C69U A106U C125G G126C U139C], for which the “polymerase ribozyme fitness (log ratio)” value is no more than -4.2.

Take GGAUCUUCUCGAUCUAACAAAAAAGGCAAAUCUGCCACAAUGGUUGAGAUCAUUUUCGGAUGCAGAGGCGGCAGCCUUCGGUGGCGCGAUAGCGCCAACGUUCUCAACUAUGACACGCAAAACGCGUGCUCCGUUGAAUGGAGUUUAUCAUG [A26G A41U C43G G50U C54U]: the “polymerase ribozyme fitness (log ratio)” value was no more than -4.2.

Consider GGAUCUUCUCGAUCUAACAAAAAAGGUAAAUCUGCCACAAAGCUUGAGAGCAACUUCGGAUGCUGAGGCGGCAGCCGUCGGUGGCGCGAUAGCGCCAACGUUCUCAACUAUGACACGCAAGGCGCGUGCUCCGUUGGAUGGAGUUUAUCAUG [A26G C27U U53A A64U U77G A121G A122G A137G], for which the “polymerase ribozyme fitness (log ratio)” value was no more than -4.2.

For GGAUCUUCUCGAUCUAACAAAAAAGGCAAAUCUGGCACAAAGCUUGAGAGCCGCUUGGGAUGCAGAGGCGGCAGCCUUCGGUGGCGCGAUAGCGACAACGUUCUCAACUAUGACUCGCAAAACGCGUGCUCCGUUGAAUGGAUUUUAUCAUG [A26G C35G A52C U53G C57G C95A A115U G143U], the “polymerase ribozyme fitness (log ratio)” value is no more than -4.2.
